According to publication PMC9911399, “Two distinct binding modes provide the RNA-binding protein RbFox with extraordinary sequence specificity”:
Residue numbers refer to the chain shown, from its start. Some of the results follow.

T1: RBFOX1 RRM RbFoxmut (Fox-RRM*) (Homo sapiens, UniProt Q9NWB1 109-208, R118D;E147R;N151S;E152T)
T1 sequence: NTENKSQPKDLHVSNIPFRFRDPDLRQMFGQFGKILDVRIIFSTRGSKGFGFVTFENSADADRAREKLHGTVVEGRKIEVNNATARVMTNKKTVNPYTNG

B1: AAAGGAA (DNA:RNA)
RNA: GGGAGACCGGAAUUCAGAUUGUCCAAAGGAAUUAAAUCCCGUCGUAGCCACCA
DNA 1: CAATCTGAATTCCGGTCTCCC
DNA 2: TGGTGGCTACGACGGGATT
B2: GUUGAGC (DNA:RNA)
RNA: B1 RNA with A25G, A26U, A27U, G29A, A30G, A31C
DNA 1: CAATCTGAATTCCGGTCTCCC
DNA 2: TGGTGGCTACGACGGGATT
B3: UCUCCGU (DNA:RNA)
RNA: GGGAGACCGGAAUUCAGAUUGUCCUCUCCGUUUAAAUCCCGUCGUAGCCACCA
DNA 1: CAATCTGAATTCCGGTCTCCC
DNA 2: TGGTGGCTACGACGGGATT
B4: UACCGGU (DNA:RNA)
RNA: B3 RNA with C26A, U27C, C29G
DNA 1: CAATCTGAATTCCGGTCTCCC
DNA 2: TGGTGGCTACGACGGGATT
B5: UCUAGAU (DNA:RNA)
RNA: B3 RNA with C28A, C29G, G30A
DNA 1: CAATCTGAATTCCGGTCTCCC
DNA 2: TGGTGGCTACGACGGGATT
B6: AAUUUGA (DNA:RNA)
RNA: B1 RNA with A27U, G28U, G29U, A30G
DNA 1: CAATCTGAATTCCGGTCTCCC
DNA 2: TGGTGGCTACGACGGGATT
B7: UUGUUCC (DNA:RNA)
RNA: B3 RNA with C26U, U27G, C28U, C29U, G30C, U31C
DNA 1: CAATCTGAATTCCGGTCTCCC
DNA 2: TGGTGGCTACGACGGGATT
B8: AAAAGGG (DNA:RNA)
RNA: B1 RNA with G28A, A30G, A31G
DNA 1: CAATCTGAATTCCGGTCTCCC
DNA 2: TGGTGGCTACGACGGGATT
B9: UAUACCC (DNA:RNA)
RNA: B3 RNA with C26A, C28A, G30C, U31C
DNA 1: CAATCTGAATTCCGGTCTCCC
DNA 2: TGGTGGCTACGACGGGATT
B10: GAGCUGC (DNA:RNA)
RNA: B3 RNA with U25G, C26A, U27G, C29U, U31C
DNA 1: CAATCTGAATTCCGGTCTCCC
DNA 2: TGGTGGCTACGACGGGATT
B11: CAAAUCA (DNA:RNA)
RNA: B1 RNA with A25C, G28A, G29U, A30C
DNA 1: CAATCTGAATTCCGGTCTCCC
DNA 2: TGGTGGCTACGACGGGATT
B12: GUAGAAU (DNA:RNA)
RNA: B1 RNA with A25G, A26U, G29A, A31U
DNA 1: CAATCTGAATTCCGGTCTCCC
DNA 2: TGGTGGCTACGACGGGATT
B13: GGCAUGA (DNA:RNA)
RNA: B1 RNA with A25G, A26G, A27C, G28A, G29U, A30G
DNA 1: CAATCTGAATTCCGGTCTCCC
DNA 2: TGGTGGCTACGACGGGATT
B14: GACUGCA (DNA:RNA)
RNA: B1 RNA with A25G, A27C, G28U, A30C
DNA 1: CAATCTGAATTCCGGTCTCCC
DNA 2: TGGTGGCTACGACGGGATT
B15: CUCCGGU (DNA:RNA)
RNA: B3 RNA with U25C, C26U, U27C, C29G
DNA 1: CAATCTGAATTCCGGTCTCCC
DNA 2: TGGTGGCTACGACGGGATT
B16: CUUAAUC (DNA:RNA)
RNA: B3 RNA with U25C, C26U, C28A, C29A, G30U, U31C
DNA 1: CAATCTGAATTCCGGTCTCCC
DNA 2: TGGTGGCTACGACGGGATT
B17: CACGGUC (DNA:RNA)
RNA: B1 RNA with A25C, A27C, A30U, A31C
DNA 1: CAATCTGAATTCCGGTCTCCC
DNA 2: TGGTGGCTACGACGGGATT
B18: AUCAGCU (DNA:RNA)
RNA: B1 RNA with A26U, A27C, G28A, A30C, A31U
DNA 1: CAATCTGAATTCCGGTCTCCC
DNA 2: TGGTGGCTACGACGGGATT
B19: CCAAACC (DNA:RNA)
RNA: B1 RNA with A25C, A26C, G28A, G29A, A30C, A31C
DNA 1: CAATCTGAATTCCGGTCTCCC
DNA 2: TGGTGGCTACGACGGGATT
B20: CCUGUGA (DNA:RNA)
RNA: B3 RNA with U25C, C28G, C29U, U31A
DNA 1: CAATCTGAATTCCGGTCTCCC
DNA 2: TGGTGGCTACGACGGGATT
B21: GAGGCUG (DNA:RNA)
RNA: B1 RNA with A25G, A27G, G29C, A30U, A31G
DNA 1: CAATCTGAATTCCGGTCTCCC
DNA 2: TGGTGGCTACGACGGGATT
B22: CUAUUUG (DNA:RNA)
RNA: B1 RNA with A25C, A26U, G28U, G29U, A30U, A31G
DNA 1: CAATCTGAATTCCGGTCTCCC
DNA 2: TGGTGGCTACGACGGGATT
B23: UCGGGCU (DNA:RNA)
RNA: B3 RNA with U27G, C28G, C29G, G30C
DNA 1: CAATCTGAATTCCGGTCTCCC
DNA 2: TGGTGGCTACGACGGGATT
B24: AAUCCAC (DNA:RNA)
RNA: B1 RNA with A27U, G28C, G29C, A31C
DNA 1: CAATCTGAATTCCGGTCTCCC
DNA 2: TGGTGGCTACGACGGGATT
B25: UUAAGGA (DNA:RNA)
RNA: B1 RNA with A25U, A26U, G28A, A30G
DNA 1: CAATCTGAATTCCGGTCTCCC
DNA 2: TGGTGGCTACGACGGGATT
B26: ACCUUUG (DNA:RNA)
RNA: B1 RNA with A26C, A27C, G28U, G29U, A30U, A31G
DNA 1: CAATCTGAATTCCGGTCTCCC
DNA 2: TGGTGGCTACGACGGGATT
B27: GUGGCCU (DNA:RNA)
RNA: B3 RNA with U25G, C26U, U27G, C28G, G30C
DNA 1: CAATCTGAATTCCGGTCTCCC
DNA 2: TGGTGGCTACGACGGGATT
B28: CGGAACC (DNA:RNA)
RNA: GGGAGACCGGAAUUCAGAUUGUCCCGGAACCUUAAAUCCCGUCGUAGCCACCA
DNA 1: CAATCTGAATTCCGGTCTCCC
DNA 2: TGGTGGCTACGACGGGATT
B29: GGUCUUU (DNA:RNA)
RNA: B3 RNA with U25G, C26G, C29U, G30U
DNA 1: CAATCTGAATTCCGGTCTCCC
DNA 2: TGGTGGCTACGACGGGATT
B30: GAUGCAA (DNA:RNA)
RNA: B1 RNA with A25G, A27U, G29C
DNA 1: CAATCTGAATTCCGGTCTCCC
DNA 2: TGGTGGCTACGACGGGATT
B31: UCGCAGA (DNA:RNA)
RNA: B3 RNA with U27G, C29A, U31A
DNA 1: CAATCTGAATTCCGGTCTCCC
DNA 2: TGGTGGCTACGACGGGATT

What follows are binders tested against T1, RBFOX1 RRM RbFoxmut (Fox-RRM*) (assay: EMSA; HiTS-Eq, 1 nM pool, 10 min; buffer printed only for the single-RNA assays: 10 mM Tris pH 7.5, 150 mM NaCl, 3.4 mM EDTA, 0.001% NP-40, 30 C). Conditions: tags: His6 N-terminal (pET28a); label: 5' 32P.
Procedure, shortened: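 Purified RbFox RRM (wild type or mutant) was equilibrated for 10 min in 50 µL with 1 nM of a 5′-radiolabelled pool of RNA with 7 randomized nucleotides, its flanks annealed to DNA oligonucleotides, across increasing protein concentrations. Free RNA was separated by 8% native PAGE, excised, reverse-transcribed, PCR-barcoded and sequenced on an Illumina HiSeq 2500. Relative association constants came from read-count changes of each variant against the control reaction, normalised to the cognate motif.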

Point of comparison: B7, binding signal 0.104 KA relative to UGCAUGU. Against it:
- B1 — lower, 0.0906 KA relative to UGCAUGU
- B2 — higher, 0.13 KA relative to UGCAUGU
- B3 — higher, 0.118 KA relative to UGCAUGU
- B4 — lower, 0.0607 KA relative to UGCAUGU
- B5 — lower, 0.0932 KA relative to UGCAUGU
- B6 — lower, 0.06 KA relative to UGCAUGU
- B8 — lower, 0.0588 KA relative to UGCAUGU
- B9 — lower, 0.0554 KA relative to UGCAUGU
- B10 — lower, 0.0895 KA relative to UGCAUGU
- B11 — lower, 0.0805 KA relative to UGCAUGU
- B12 — higher, 0.108 KA relative to UGCAUGU
- B13 — higher, 0.624 KA relative to UGCAUGU
- B14 — higher, 0.224 KA relative to UGCAUGU
- B15 — lower, 0.0877 KA relative to UGCAUGU
- B16 — lower, 0.0604 KA relative to UGCAUGU
- B17 — higher, 0.177 KA relative to UGCAUGU
- B18 — higher, 0.113 KA relative to UGCAUGU
- B19 — lower, 0.0976 KA relative to UGCAUGU
- B20 — higher, 0.155 KA relative to UGCAUGU
- B21 — higher, 0.224 KA relative to UGCAUGU
- B22 — higher, 0.123 KA relative to UGCAUGU
- B23 — lower, 0.0653 KA relative to UGCAUGU
- B24 — lower, 0.0859 KA relative to UGCAUGU
- B25 — lower, 0.0455 KA relative to UGCAUGU
- B26 — higher, 0.13 KA relative to UGCAUGU
- B27 — higher, 0.106 KA relative to UGCAUGU
- B28 — higher, 0.154 KA relative to UGCAUGU
- B29 — lower, 0.0365 KA relative to UGCAUGU
- B30 — lower, 0.0655 KA relative to UGCAUGU
- B31 — lower, 0.0842 KA relative to UGCAUGU
